Consider four compounds from the supplement of paper PMC4604168 (melanoma cell lines).

This is one part of the list. Repeats are few or missing, and single values can be far off.
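Note: cells treated in 1,536-well plates, then fixed and DAPI-stained, with nuclei counted from automated high-throughput microscope images.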

This experiment has as its system WM3619. Description: cell count relative to DMSO control; melanoma cells; higher = more viable cells. As to conditions: library dose: standard library concentration; 72 h.
Compound `N#CC[C@H](C1CCCC1)n1cc(-c2ncnc3[nH]ccc23)cn1` [ruxolitinib] + CC(C)(C)c1cnc(CSc2cnc(NC(=O)C3CCNCC3)s2)o1 [SNS-032] (first compound 5 µM, partner dose 0.05 µM) yielded a cell count of 79.4%.
In the case of `CC[C@]1(O)C[C@H]2CN(CCc3c([nH]c4ccccc34)[C@@](C(=O)OC)(c3cc4c(cc3OC)N(C=O)[C@H]3[C@@](O)(C(=O)OC)[C@H](OC(C)=O)[C@]5(CC)C=CCN6CC[C@]43[C@@H]65)C2)C1` [vincristine] + Cc1cc(N2CCOCC2)cc2[nH]c(-c3c(NC[C@@H](O)c4cccc(Cl)c4)cc[nH]c3=O)nc12 [BMS536924] (first compound 0.0005 µM, partner dose 1 µM) it was 26.9%.
In the case of `CC[C@]1(O)C[C@H]2CN(CCc3c([nH]c4ccccc34)[C@@](C(=O)OC)(c3cc4c(cc3OC)N(C=O)[C@H]3[C@@](O)(C(=O)OC)[C@H](OC(C)=O)[C@]5(CC)C=CCN6CC[C@]43[C@@H]65)C2)C1` [vincristine] + CC(C)(C)c1cnc(CSc2cnc(NC(=O)C3CCNCC3)s2)o1 [SNS-032] (first compound 0.0005 µM, partner dose 0.05 µM) it was 76.6%; in that of `N#CC[C@H](C1CCCC1)n1cc(-c2ncnc3[nH]ccc23)cn1` [ruxolitinib] + NC(=O)Nc1cc(-c2cccc(F)c2)sc1C(=O)N[C@H]1CCCNC1 [AZD7762] (first compound 5 µM, partner dose 0.1 µM), 27.8%.
